Measured values reported in PubChem BioAssay AID1508649 (National Center for Advancing Translational Sciences (NCATS), 2021).
Hit rate of the full screen: of about 43,000 compounds, about 830 (1.9%) were called active. The inconclusive results got no clear call from the source; some entries with a clear call stand among them for comparison. How the source made its calls: active means clear falling dose curves in both reporters; inconclusive means both reporters move, but less clearly or upward; inactive means either reporter flat; the % is the NLuc reporter signal. Potencies of inconclusive entries are left out as doubtful fits.

Experiment: Cell-based coincidence reporter assay to measure PMP22 gene transcription in S16 Pmp22-F2sN cells - Primary screen
Conditions: S16 Pmp22-F2sN Schwann cells (luciferase reporters placed in the Pmp22 gene), FLuc/NLuc coincidence luminescence, 24 h; measured here: NLuc reporter readout, at 57.5 µM (top of the series); activity change, negative = inhibition: at the top concentration
Outline: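 Schwann cells carrying the coincidence reporter were exposed to library compounds for 24 h at 37C, then lysed and read for FLuc and, after quenching, NLuc luminescence on a CCD imager.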
On the % scale 0 is the no-effect control and ±100 the full control effect; potency means the concentration at half of the fitted maximal effect; tags describe the fitted curve by direction and shape.

**Q.** Which Potency does the source give for `Cc1ccccc1C(=O)Nc1nnc(S(=O)(=O)N(C)c2ccc(Cl)cc2)s1` here?
**A.** inconclusive [phenotype inactive, single point]

**Q.** With `Cc1ccc(CNC(=O)CCc2nnc3n(C)c(=O)c4sccc4n23)cc1` as the compound, how does the “activity change, negative = inhibition” value read?
**A.** inactive: -9.48%

**Q.** Which Potency does the source give for `O=C1CN(C(=O)COc2ccc(Cl)cc2)C(c2ccc(F)cc2)c2cc(Cl)ccc2N1` (stereo not drawn) here?
**A.** inconclusive [phenotype inactive, single point]

**Q.** For `COc1ccccc1CNC(=O)CCCn1c(=O)c2ccccc2n(Cc2ccccc2C#N)c1=O`, which Potency is on record?
**A.** inconclusive [phenotype inactive, partial curve, poor fit]

**Q.** With `COc1ccc(C(=O)Nc2c(C(=O)c3ccc(F)cc3)oc3ccccc23)cc1` as the compound, how does the Potency read?
**A.** active: 10.2 µM

**Q.** For `COc1cc(OC)cc(-c2nc(-c3cccc(C)c3)no2)c1`, which “activity change, negative = inhibition” value is on record?
**A.** inactive: 10.8%

**Q.** With `Cc1ccc(CNCc2ccccc2)s1` as the compound, how does the “activity change, negative = inhibition” value read?
**A.** inactive: -16.6%

**Q.** With `O=C(Cn1ncc2c([nH]c3ccccc32)c1=O)Nc1cccc(C(F)(F)F)c1` as the compound, how does the Potency read?
**A.** active: 20 µM

**Q.** Which Potency does the source give for `CCOC(=O)C1=C(CN2CCN(c3ccccc3F)CC2)NC(=O)NC1c1ccc(Cl)cc1` (stereo not drawn) here?
**A.** inconclusive [phenotype inactive, single point]

**Q.** Which Potency does the source give for `Cc1oc(-c2cccc(Cl)c2)nc1CN1CCC(C(=O)NCCCN2CCN(c3ccc(F)cc3)CC2)CC1` here?
**A.** active: 9.58 µM

**Q.** For `O=C(NCc1ccccc1Cl)C1CCCN(C(=O)c2cnn(-c3ccccc3)c2-n2cccc2)C1` (stereo not drawn), which Potency is on record?
**A.** inconclusive [phenotype inactive, single point]

**Q.** For `Cc1cccc(-c2nc3c(c(SCc4ccccc4Cl)n2)Cc2c(CO)cnc(C)c2O3)c1`, which Potency is on record?
**A.** inconclusive [phenotype inactive, single point]

**Q.** Which Potency does the source give for `Cc1ccc(NC(=O)CSc2ncc3c(n2)-c2ccc(Cl)cc2N(C)S3(=O)=O)cc1F` here?
**A.** inconclusive [phenotype inactive, single point]

**Q.** For `Cc1ccc(Cn2c(SCc3ccc(C(=O)N4CCCCCC4)cc3)nc3ccncc32)cc1`, which Potency is on record?
**A.** inconclusive [phenotype inactive, single point]

**Q.** Which Potency does the source give for `COc1ccc(-c2noc(-c3ccc(N4CCN(C)CC4)c([N+](=O)[O-])c3)n2)cc1OC` here?
**A.** inconclusive [phenotype inactive, single point]

**Q.** For `Cc1cc2oc(C(=O)N(Cc3ccccc3F)C3CCS(=O)(=O)C3)c(C)c2cc1Cl` (stereo not drawn), which Potency is on record?
**A.** inconclusive [phenotype inactive, partial curve]

**Q.** With `Cc1c(Cl)cccc1-c1ccc(CNCCSc2nnnn2-c2ccccc2)o1` as the compound, how does the Potency read?
**A.** inconclusive [phenotype inactive, single point]

**Q.** Which Potency does the source give for `CCOc1ccc(NC(=O)C(Cc2ccccc2)NS(=O)(=O)c2ccc3c(c2)oc(=O)n3C)cc1` (stereo not drawn) here?
**A.** inconclusive [phenotype inactive, single point]

**Q.** Which Potency does the source give for `CCc1nc2ccc(C(=O)N3CCN(c4cc(Cl)ccc4C)CC3)cc2nc1CC` here?
**A.** inconclusive [phenotype inactive, single point]

**Q.** With `CC(C)(C)C(=O)Nc1ccc(-c2nc3ccc(NC(=O)C(C)(C)C)cc3[nH]2)cc1` as the compound, how does the “activity change, negative = inhibition” value read?
**A.** inactive: -141%

**Q.** With `CCN(c1cccc(C)c1)S(=O)(=O)c1cc(Br)cc2c1N(C(C)=O)C(C)C2` (stereo not drawn) as the compound, how does the Potency read?
**A.** inconclusive [phenotype inactive, single point]

**Q.** Which Potency does the source give for `CCCCn1cc(S(=O)(=O)c2ccc(C)cc2)c(=O)c2cc(F)c(N3CCCCC3)cc21` here?
**A.** inconclusive [phenotype inactive, single point]

**Q.** For `Cc1ccc(Cn2c(SCc3ccc(C(=O)NC4CCCCC4)cc3)nc3ccncc32)cc1`, which Potency is on record?
**A.** inconclusive [phenotype inactive, single point]

**Q.** Which Potency does the source give for `COc1cccc(NS(=O)(=O)c2ccc3c(c2)n(C)c(=O)n3C)c1` here?
**A.** inconclusive [phenotype inactive, partial curve]

**Q.** For `O=C(CSc1nnc(-c2ccccc2Cl)o1)N1CCCc2ccccc21`, which Potency is on record?
**A.** inconclusive [phenotype inactive, single point]

**Q.** Which Potency does the source give for `COc1ccc(N(Cc2cc3ccccc3[nH]c2=O)C(=O)c2cccc(Cl)c2)cc1` here?
**A.** inconclusive [phenotype inactive, single point]

**Q.** For `Cc1c(C(=O)OCc2ccccc2)[nH]c2c1C(=O)CC(c1ccc(C(C)(C)C)cc1)C2` (stereo not drawn), which Potency is on record?
**A.** inconclusive [phenotype inactive, full curve, poor fit]

**Q.** With `CCOC(=O)Cc1ccc(NC(=O)Nc2c[nH]c(=O)[nH]c2=O)cc1` as the compound, how does the “activity change, negative = inhibition” value read?
**A.** inactive: 8.78%

**Q.** For `Cc1c(C(=O)NCc2ccc(F)cc2)oc2ccc(S(=O)(=O)N3CCCCC3)cc12`, which Potency is on record?
**A.** inconclusive [phenotype inactive, single point]

**Q.** Which “activity change, negative = inhibition” value does the source give for `Cc1ccccc1Oc1nc2ccccn2c(=O)c1/C=C(\C#N)c1nc2ccccc2[nH]1` here?
**A.** inactive: 20%

**Q.** Which Potency does the source give for `COC(=O)c1ccccc1NC(=O)Cn1c(=O)n(CCC(=O)NCc2ccc3c(c2)OCO3)c(=O)c2ccccc21` here?
**A.** inconclusive [phenotype inactive, single point]

**Q.** Which Potency does the source give for `CC(C)Cn1cc(NC(=O)N2CCN(c3cccc(C(F)(F)F)c3)CC2)c2ccccc2c1=O` here?
**A.** inconclusive [phenotype inactive, single point]

**Q.** With `Cc1ccc(-n2c(C)cc(/C=C(\C#N)C(=O)Nc3ccc(C)c(C)c3)c2C)cc1` as the compound, how does the “activity change, negative = inhibition” value read?
**A.** inactive: -10.3%

**Q.** Which “activity change, negative = inhibition” value does the source give for `O=C(Nc1ccccc1C(F)(F)F)c1ccc(F)c(S(=O)(=O)N2CCc3ccccc3C2)c1` here?
**A.** inactive: -4.94%

**Q.** With `O=C1CSC2(C(=O)N(Cc3cccc(C(F)(F)F)c3)c3ccccc32)N1c1ccc(F)c(F)c1` (stereo not drawn) as the compound, how does the Potency read?
**A.** inconclusive [phenotype inactive, partial curve]

**Q.** For `COc1ccc(-n2c(SCCC(C)C)nc3sc4c(c3c2=O)CC(C(C)C)OC4)cc1` (stereo not drawn), which “activity change, negative = inhibition” value is on record?
**A.** inactive: -17.6%

**Q.** Which Potency does the source give for `CCc1ccc(NC(=O)c2cc(S(=O)(=O)NC3CCCCCC3)ccc2F)cc1` here?
**A.** inconclusive [phenotype inactive, single point]

**Q.** With `COc1ccc2c(c1)c(N1CCCC1=O)c(C(=O)Nc1ccc(OC)c(Cl)c1)n2C` as the compound, how does the Potency read?
**A.** inconclusive [phenotype inactive, partial curve]

**Q.** For `Cc1onc(-c2ccccc2Cl)c1C(=O)Oc1ccc(Cl)cc1Cl`, which Potency is on record?
**A.** inconclusive [phenotype inactive, partial curve, poor fit]

**Q.** Which Potency does the source give for `CCOc1ccc(NC(=O)CN(Cc2ccccc2)S(=O)(=O)c2ccc3nc(C)sc3c2)cc1` here?
**A.** inconclusive [phenotype inactive, single point]

**Q.** With `O=C(Nc1cc(Cl)cc(Cl)c1)c1cc(S(=O)(=O)NC2CCCC2)ccc1F` as the compound, how does the Potency read?
**A.** inconclusive [phenotype inactive, single point]

**Q.** Which Potency does the source give for `CSc1nn(Cc2ccc(C)cc2)c(N)c1S(=O)(=O)c1ccccc1` here?
**A.** inconclusive [phenotype inactive, single point]

**Q.** Which Potency does the source give for `COc1ccc(-c2cc(C(F)(F)F)nc(NCCc3ccccc3)n2)cc1OC` here?
**A.** active: 12.9 µM

**Q.** For `COC(=O)c1cc(-c2ccc(C)cc2)c2c(=O)n(C)c(=O)n(C)c2n1`, which Potency is on record?
**A.** inconclusive [phenotype inactive, partial curve, poor fit]

**Q.** For `CCc1ccc(S(=O)(=O)c2nnn3c2nc(Nc2ccc(NC(C)=O)cc2)c2sccc23)cc1`, which Potency is on record?
**A.** active: 10.6 µM

**Q.** With `CCOC(=O)CNC(=O)N1CCN(c2nnc(C)c3c(C)n(-c4ccc(Cl)cc4)nc23)CC1` as the compound, how does the “activity change, negative = inhibition” value read?
**A.** inactive: -10.9%

**Q.** With `CC1CCN(c2nc3ccc(C(=O)NCc4ccccc4)cc3s2)CC1` as the compound, how does the “activity change, negative = inhibition” value read?
**A.** inactive: 1.38%

**Q.** For `CCC(C(=O)Nc1cc(F)ccc1F)n1nc(C)c2c(C)n(-c3ccc(C)cc3)nc2c1=O` (stereo not drawn), which Potency is on record?
**A.** inconclusive [phenotype inactive, partial curve]

**Q.** Which Potency does the source give for `CCOc1ccc(CN(CCc2ccc3c(c2)OCO3)Cc2cc(OC)c(OC)cc2OC)cc1` here?
**A.** inconclusive [phenotype inactive, partial curve, poor fit]

**Q.** Which Potency does the source give for `CCCCN1CC(c2nc3ccccc3n2CCCCOc2cccc(C)c2C)CC1=O` (stereo not drawn) here?
**A.** inconclusive [phenotype inactive, single point]

**Q.** With `COc1ccc2c(CNCCc3cccs3)c(C(=O)O)n(Cc3ccc(F)cc3Cl)c2c1` as the compound, how does the Potency read?
**A.** inconclusive [phenotype inactive, single point]

**Q.** With `N#CC1=C2SCN(C3CCCCC3)CN2C(=O)CC1c1ccc(Cl)cc1` (stereo not drawn) as the compound, how does the Potency read?
**A.** inconclusive [phenotype inactive, single point]

**Q.** For `Cc1ccc(-n2c3c(cc(C(=O)Nc4ccccc4C(N)=O)c2=O)C(=O)CC(C)(C)C3)cc1`, which Potency is on record?
**A.** active: 3.4 µM

**Q.** For `CC1CN(C(=O)N2CCC(C(=O)NCCCc3ccccc3)CC2)c2cc(Cl)ccc2O1` (stereo not drawn), which Potency is on record?
**A.** inconclusive [phenotype inactive, single point]

**Q.** For `O=C(NCc1cccc(Cl)c1)c1c2c(nc3ccccc13)C(=O)N(C1CCCCC1)C2`, which Potency is on record?
**A.** inconclusive [phenotype inactive, single point]

**Q.** Which Potency does the source give for `O=C(NC(=O)c1cccc(F)c1)Nc1ccc(-c2cc(C(F)(F)F)nn2-c2ccccc2)cc1` here?
**A.** inconclusive [phenotype inactive, partial curve, poor fit]

**Q.** Which Potency does the source give for `CCOc1ccccc1-c1nc(-c2ccc(-c3ccccc3)nc2OCC)no1` here?
**A.** inconclusive [phenotype inactive, single point]

**Q.** For `CCc1ccc(NCc2cc3cc4c(cc3n(CC(=O)Nc3ccc(Cl)cc3)c2=O)OCO4)cc1`, which Potency is on record?
**A.** inconclusive [phenotype inactive, partial curve]
